# Source: article PMC4336329 (PLoS ONE, 2015)
# Out of some 310,000 compounds screened, about 2,200 (0.71%) showed an effect of 50% or more. Effects have a minus sign here. This is one part of the list.
# Target: human ether-à-go-go-related gene (hERG) potassium channel (human, UniProt Q12809)
# Assay: primary screen, population patch clamp on CHO cells stably expressing hERG
# human ether-à-go-go-related gene (hERG) potassium channel, sequence (Q12809 whole entry, looked up): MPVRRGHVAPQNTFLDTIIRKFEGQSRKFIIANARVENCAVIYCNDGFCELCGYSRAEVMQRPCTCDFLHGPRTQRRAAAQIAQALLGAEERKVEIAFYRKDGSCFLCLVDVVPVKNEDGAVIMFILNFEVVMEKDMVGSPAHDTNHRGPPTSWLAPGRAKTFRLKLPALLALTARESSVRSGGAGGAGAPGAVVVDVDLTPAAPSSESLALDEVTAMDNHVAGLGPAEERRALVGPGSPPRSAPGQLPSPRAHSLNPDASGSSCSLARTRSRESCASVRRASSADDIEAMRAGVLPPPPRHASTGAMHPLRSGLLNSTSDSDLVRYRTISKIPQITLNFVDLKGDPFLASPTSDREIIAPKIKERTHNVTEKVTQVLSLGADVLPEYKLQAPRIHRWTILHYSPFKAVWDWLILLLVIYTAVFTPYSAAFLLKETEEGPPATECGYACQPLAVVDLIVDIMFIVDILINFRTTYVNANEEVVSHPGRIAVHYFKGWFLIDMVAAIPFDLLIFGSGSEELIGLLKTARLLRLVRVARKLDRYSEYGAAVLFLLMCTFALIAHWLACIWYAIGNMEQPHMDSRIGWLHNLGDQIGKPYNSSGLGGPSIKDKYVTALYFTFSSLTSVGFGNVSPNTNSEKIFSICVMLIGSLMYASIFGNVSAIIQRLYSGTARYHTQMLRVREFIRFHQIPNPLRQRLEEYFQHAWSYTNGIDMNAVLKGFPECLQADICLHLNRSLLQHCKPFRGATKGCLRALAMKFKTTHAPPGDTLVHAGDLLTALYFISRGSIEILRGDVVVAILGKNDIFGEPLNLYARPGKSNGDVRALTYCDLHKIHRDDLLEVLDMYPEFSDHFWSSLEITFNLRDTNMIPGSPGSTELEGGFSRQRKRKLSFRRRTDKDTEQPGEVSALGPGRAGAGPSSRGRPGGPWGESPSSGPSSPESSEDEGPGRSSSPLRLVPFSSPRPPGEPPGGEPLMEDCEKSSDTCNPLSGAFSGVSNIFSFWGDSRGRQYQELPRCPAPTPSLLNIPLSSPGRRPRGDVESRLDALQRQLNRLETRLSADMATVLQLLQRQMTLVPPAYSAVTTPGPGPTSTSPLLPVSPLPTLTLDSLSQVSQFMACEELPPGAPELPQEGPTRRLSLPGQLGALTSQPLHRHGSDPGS
row,Compound,"hERG current change (%, negative = inhibition) at 1uM [%]"
1,Cc1cccc(/C=N/NC(=O)NC23CC4CC(CC(C4)C2)C3)n1,12.5
2,COc1ccc(CNC(=O)c2sccc2-c2ccccc2)cc1OC,11
3,CC(C)N(Cc1c(O)ccc2c(=O)c(-c3ccc(Cl)cc3)coc12)C(C)C,8.88
4,CC(=O)Nc1ccc(NC(=O)c2cc(C)nn2-c2ccccc2)cc1,6.68
5,CCOC(=O)c1c(C)nc2c(c1C)c(=O)oc1ccccc12,5.46
6,CN1c2ccccc2C2(C)CCCC3=Cc4cc([N+](=O)[O-])cc([N+](=O)[O-])c4OC312 (stereo not shown),10.2
7,CN(C)S(=O)(=O)c1cccc(C(=O)C2=C3SC=C(c4ccccc4)N3CC2)c1,5.05
8,O=C1N=c2ccccc2=C1c1[nH]c(=S)[nH]c1O,20.5
9,COc1cccc(C2/C(=C(/O)c3ccc4c(c3)OCO4)C(=O)C(=O)N2CCN2CCOCC2)c1 (stereo not shown),12.1
10,COc1ccc(C(=O)Nc2ccccc2NC(=O)c2ccco2)c(OC)c1,-5.17
11,Cc1ccnc(NC(=O)c2ccc(COc3c(F)c(F)cc(F)c3F)o2)c1,16.1
12,COCCN(C(=O)/C=C/c1ccccc1)c1nnc(-c2cccnc2)s1,8.57
13,CCN(Cc1cnn(C)c1)Cc1nc(Cc2ccccc2Cl)no1,3.47
14,COc1ccc(S(=O)(=O)NCC(=O)N(Cc2ccco2)C(C(=O)NC(C)(C)C)C(C)C)cc1 (stereo not shown),-4.52
15,O=C(CSc1nnnn1-c1cccnc1)Nc1cccc(Cl)c1,9.13
16,CCOCCCNc1nc(C(F)(F)F)nc2c1nnn2Cc1ccccc1Cl,15.9
17,COc1ccc(C(C(=O)NC2CCCC2)N(CCN2CCOCC2)C(=O)c2ccc(OC)c(OC)c2)cc1 (stereo not shown),6.36
18,O=C(c1csc2c1CCCC2)N1CCCCC1,14.6
19,CCOc1ccc(CN(C)C(=O)CN2C(=O)NC(c3ccccc3)(c3ccccc3)C2=O)cc1,11.9
20,CCn1c(SCC(=O)Nc2ccccc2F)nnc1-c1ccoc1C,2.43
21,CC(C)(C)c1ccc(S(=O)(=O)NCc2ccc(C(=O)NCC3CCCO3)cc2)cc1 (stereo not shown),16.7
22,CC(Oc1ccc(F)cc1)C(=O)Nc1ccc2ccccc2c1 (stereo not shown),11.5

row,Compound,"hERG current change (%, negative = inhibition) at 1uM [%]"
1,Cc1ccc(NC(=O)CC(NC(=O)c2ccccc2Cl)c2ccccc2)nc1 (stereo not shown),6.25
2,O=C(Cc1ccccc1)NNC(=S)Nc1ccc(Cl)cc1,10.8
3,NC(=O)Cc1nc2scc(-c3ccccc3)c2c(=O)[nH]1,15.1
4,O=C(Cn1nc(-c2ccc3c(c2)OCCO3)ccc1=O)Nc1ccc(N2CCOCC2)cc1,6.55
5,O=C(Nc1ccc2c(c1)OCO2)c1ccc(N2C(=O)c3ccccc3C2=O)cc1,-2.24
6,CCN(CC)C(=O)CSc1nnc(-n2nc(C)cc2C)c2ccccc12,11.2
7,O=C(c1cc2nc(-c3ccccc3)cc(C(F)(F)F)n2n1)N1CCOCC1,-10.5
8,CCOC(=O)C1(CCc2ccccc2)CCN(C(=O)CCn2cncn2)CC1,-34
9,CCOC(=O)N1CCN(C(c2cccnc2)c2ccc3cccnc3c2O)CC1 (stereo not shown),10.5
10,Cn1c(SCC#N)nnc1-c1ccc2c(c1)OCO2,18
11,C(=C\c1ccco1)/C=N/n1cnnc1,10.6
12,Nc1ccc(C(=O)Nc2ccco2)cc1,11.5
13,CCCn1c(=O)c2[nH]cnc2n(-c2ccc(Cl)cc2)c1=O,10.3
14,CCN1C(=O)C2(Nc3ccccc3-c3nc4ccccc4n32)c2cc(OC)ccc21 (stereo not shown),8.77
15,CCOc1ccc(CCNC(=O)c2oc3c(c2C)-c2[nH]ncc2CC3)cc1OCC,2.09
16,C=CCn1c(O)c(C(C)=NCc2ccc3c(c2)OCO3)c(=O)[nH]c1=O,5.62
17,Cc1c(C(=O)O)nn(-c2ccccc2)c(=O)c1C#N,6.47
18,Oc1ccc(-c2onc(C(F)(F)F)c2-c2cscn2)c(O)c1,9.18
19,O=C(O)CCC(=O)Nc1cc(C(F)(F)F)cc(C(F)(F)F)c1,17.3
20,CC(NC(=O)C(=O)c1cn(CC(=O)N2CCOCC2)c2ccccc12)c1ccccc1 (stereo not shown),8.13
21,COc1ccc(CCNC(=O)c2cnn3c(C(F)F)cc(C)nc23)cc1OC,5.69
